# The campaign covered roughly 310,000 compounds. About 14,000 (4.5%) showed an effect of 50% or more. The effect is printed as a negative number. The list shows a part of the results.
# Biological target: human ether-à-go-go-related gene (hERG) potassium channel (human, UniProt Q12809)
# Test: primary screen, population patch clamp on CHO cells stably expressing hERG
# 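Also: peak tail current of the secondary pulse compared with the same well before compound.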
# human ether-à-go-go-related gene (hERG) potassium channel, sequence (Q12809 whole entry, looked up): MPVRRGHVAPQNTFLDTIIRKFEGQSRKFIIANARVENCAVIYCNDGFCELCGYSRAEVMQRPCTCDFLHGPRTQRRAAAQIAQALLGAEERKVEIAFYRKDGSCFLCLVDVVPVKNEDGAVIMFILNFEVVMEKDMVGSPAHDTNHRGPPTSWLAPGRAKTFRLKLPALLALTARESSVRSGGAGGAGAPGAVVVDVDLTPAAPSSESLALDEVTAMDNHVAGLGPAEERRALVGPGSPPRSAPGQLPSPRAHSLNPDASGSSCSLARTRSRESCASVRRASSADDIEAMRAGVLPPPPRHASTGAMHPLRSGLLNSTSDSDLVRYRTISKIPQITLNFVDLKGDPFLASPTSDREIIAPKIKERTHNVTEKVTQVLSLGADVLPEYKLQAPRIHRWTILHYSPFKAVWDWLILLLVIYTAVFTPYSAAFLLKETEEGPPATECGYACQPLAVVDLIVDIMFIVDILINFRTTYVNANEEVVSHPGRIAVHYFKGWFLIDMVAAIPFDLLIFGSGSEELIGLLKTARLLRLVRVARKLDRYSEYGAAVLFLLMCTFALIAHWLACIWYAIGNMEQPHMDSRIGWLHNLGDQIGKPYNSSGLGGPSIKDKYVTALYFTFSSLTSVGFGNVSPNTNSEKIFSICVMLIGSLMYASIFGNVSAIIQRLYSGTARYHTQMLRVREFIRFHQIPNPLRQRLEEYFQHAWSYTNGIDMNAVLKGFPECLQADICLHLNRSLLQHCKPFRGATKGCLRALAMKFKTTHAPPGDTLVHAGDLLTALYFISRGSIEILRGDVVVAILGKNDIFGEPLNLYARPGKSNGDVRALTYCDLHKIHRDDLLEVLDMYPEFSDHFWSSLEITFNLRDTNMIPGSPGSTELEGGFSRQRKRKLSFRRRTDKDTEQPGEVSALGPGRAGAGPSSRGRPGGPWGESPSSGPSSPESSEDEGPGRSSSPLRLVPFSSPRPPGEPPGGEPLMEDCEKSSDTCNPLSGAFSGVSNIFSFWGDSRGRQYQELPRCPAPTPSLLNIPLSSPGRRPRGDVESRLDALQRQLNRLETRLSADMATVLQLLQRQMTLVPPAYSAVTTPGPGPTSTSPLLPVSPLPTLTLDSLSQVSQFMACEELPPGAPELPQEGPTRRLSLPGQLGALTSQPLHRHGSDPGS
row,Structure (SMILES),"hERG current change (%, negative = inhibition) at 10uM [%]"
1,NC(=O)C1CCN(C(=O)c2ccc(Oc3cc(Cl)cc(Cl)c3)o2)CC1,-18.1
2,N#C/C(=N/O)c1nc(-c2ccc(F)cc2)cs1,12.5
3,Cc1ccccc1NC(=O)CSc1nnc(-c2ccco2)c(-c2ccco2)n1,-53.9
4,COc1cc2c(cc1OC)CN(C(=O)c1cc(Cl)nc(Cl)c1)CC2,12.1
5,CCCSCCCNC(=O)c1cc2c(s1)CS(=O)(=O)C2,-7.85
6,Cc1ccccc1C(=O)Nn1c(C)ccc1C,12.2
7,CC1=C(C(=O)OCC(C)C)C23C(=O)c4ccccc4C2(O1)OC(N)=C3C#N (centres unmarked),-9.24
8,CCOc1ccc(NC(=O)c2cc(C)nc3ccccc23)cc1,2.33
9,COc1ccc(CCn2c(C)c(C(C)=O)c3cc(OC(=O)c4ccco4)ccc32)cc1OC,4.27
10,Cc1cccc(C(=O)Nc2nnc(Cc3ccccc3)s2)c1,14.7
11,O=C1CSC(=S)N1c1cccc(Cl)c1,14.1
12,O=C(O)/C=C/c1cn(Cc2ccccc2)nc1-c1ccccc1,1.89
13,CCOC(=O)[C@H]1[C@H]2COc3cc(OC)ccc3[C@@H]2N2C(=O)c3cc(F)ccc3NC(=O)[C@@]12C,-5.97
14,COC(=O)c1cnn(-c2ccc(Cl)cc2)c1/C=N/NC(N)=S,7.44
15,Cc1ccc(C(=O)Nc2ccc(C(=O)NCC3CCCO3)cc2)cc1 (centres unmarked),24.7
16,CCC(C)N(C(=O)c1csnn1)C(C(=O)NCc1ccc(F)cc1)c1ccccc1F (centres unmarked),-3.97
17,CCNC(=O)OCCC12CC3CC(CC(C3)C1)C2,-7.36
18,Cc1ccc(N2CC(C(=O)N/N=C/c3cccc([N+](=O)[O-])c3)CC2=O)cc1 (centres unmarked),-22.2
19,COc1ccc(C[C@H]2CN3C(=NC[C@@H]3C)N2CCNC(=O)CCC2CCCCC2)cc1,-69

row,Structure (SMILES),"hERG current change (%, negative = inhibition) at 10uM [%]"
1,CCOC(=O)c1nn(-c2ccc(F)cc2)c(C)c1C(C)=O,1.61
2,O=C(O)c1ccc(C(=O)O)c(C(=O)c2ccc(NC(=O)c3ccccc3)cc2)c1,8.99
3,O=C(Nc1ccc2ccccc2c1)C(=O)C1C(=O)Nc2ccccc21 (centres unmarked),4.86
4,CCOc1ccc2ccccc2c1/C=N/NC(=O)c1ccc(C)nc1,-5.49
5,N#Cc1nc(Cc2cccc3ccccc23)oc1NCCCn1ccnc1,-71
6,COc1ccc(-c2nn(-c3ccccc3)cc2C(=O)OCC(=O)c2ccc(C)c([N+](=O)[O-])c2)cc1,11.4
7,O=C(N/N=C/c1cccc(Oc2ccccc2)c1)c1ccc(O)cc1O,-7.07
8,CCS(=O)(=O)NCC(c1cccnc1)N1CCN(c2ccccc2)CC1 (centres unmarked),-28.1
9,CCN(CC)S(=O)(=O)c1cccc(-c2n[nH]c(=S)n2C(C)COC)c1 (centres unmarked),44.9
10,COC(=O)c1ccsc1NC(=O)c1ccco1,13.8
11,Cc1ccc(OCc2nnc(SCC(=O)NCc3ccccc3)n2C)cc1,-34.5
12,Cc1nc2ccc(NC(=O)Cc3ccc(Br)cc3)cc2s1,6.84
13,O=C(Cc1ccccc1)c1c[nH]c(C(=O)NC2CCCC2)c1,10.1
14,Cc1noc(C)c1S(=O)(=O)N1CCC(C(=O)N2CCC(C)CC2)CC1,0.849
15,O=C(Nc1ccccc1C(F)(F)F)NC1CCCCCCC1,-10.7
16,OCC(CO)(CO)n1cnnn1,12.3
17,O=C(O)CNC(=O)/C(=C/c1ccco1)NC(=O)/C=C/c1ccccc1,2.62
18,Cc1nnc(SCC(=O)N(CC(C)C)C2CCS(=O)(=O)C2)s1 (centres unmarked),1.37
19,CCCC(=O)Nc1ccc(Cc2ccc(NC(=O)CCC)c(C(=O)O)c2)cc1C(=O)O,13.6

row,Structure (SMILES),"hERG current change (%, negative = inhibition) at 10uM [%]"
1,O=C(NN=C1CCCC1)NC1CCCCC1,3.12
2,CCOc1ccc(-c2nnc(SCC(=O)O)n2Cc2ccccc2)cc1,24.6
3,C[C@H](NC(=O)[C@H](Cc1ccccc1)n1c(=O)[nH]c2ccccc2c1=O)C(=O)N1CCC[C@H]1C(=O)O,14.7
4,CC1CCN(C(=O)NC(=O)c2ccc(Cl)cc2)CC1,-6
5,CCN(C(=O)c1c(N)cnn1C)c1ccccc1,-0.557
6,Cc1cccc(Nc2n[nH]c(C)c2[N+](=O)[O-])c1,-15.5
7,Cc1ccc(C)c(NC(=S)NCc2cccs2)c1,-5.12
8,O=C(CSc1nc2ccccc2c(=O)n1Cc1ccccc1)Nc1ccc(Br)cc1C(=O)O,4.08
9,Cc1ccc(N(CC(=O)N2CCN(c3ccc(F)cc3)CC2)S(=O)(=O)c2c(C)nn(C)c2C)cc1,-65.8
10,O=C(CCCN1C(=O)c2cccc3cccc(c23)C1=O)N1CCN(c2ccccc2O)CC1,-9.63
11,Cc1ccc(C)c(C(=O)COC(=O)c2ccc(C)c(S(=O)(=O)N3CCOCC3)c2)c1,-32
12,C/C(=C\C(=O)Nc1cscc1C)C(=O)O,14.3
13,COC(=O)[C@H](C)NC(=O)Nc1ccc(Oc2ccccc2)cc1,0.141
14,Cc1cc2oc(=O)cc(CSc3nc(N)cc(N)n3)c2cc1C(C)C,1.55
15,Cc1cccc(C)c1NC(=O)CCS(=O)(=O)c1ccc(Br)cc1,31.2
16,CCn1ncc(/C=N\NC(=O)c2ccc3c(c2)c(C)c(C)n3Cc2ccccc2)c1C,-0.323
17,COc1ccc(OC)c(/C=C/c2c([N+](=O)[O-])c(=O)n(C)c(=O)n2C)c1,-2.67
18,COc1ccc2ccccc2c1CNC(C)c1ccccc1.O=C(O)C(=O)O (centres unmarked),-44.4

# From paper PMC4336329 (PLoS ONE, 2015)
